These results are taken from PMC4336329 (PLoS ONE, 2015).

The campaign covered roughly 310,000 compounds. About 2,200 (0.71%) showed an effect of 50% or more. The effect is printed as a negative number. The list shows a part of the results.

This assay deals with human ether-à-go-go-related gene (hERG) potassium channel (human, UniProt Q12809). In words: primary screen, population patch clamp on CHO cells stably expressing hERG.
Chain of human ether-à-go-go-related gene (hERG) potassium channel (Q12809 whole entry, looked up): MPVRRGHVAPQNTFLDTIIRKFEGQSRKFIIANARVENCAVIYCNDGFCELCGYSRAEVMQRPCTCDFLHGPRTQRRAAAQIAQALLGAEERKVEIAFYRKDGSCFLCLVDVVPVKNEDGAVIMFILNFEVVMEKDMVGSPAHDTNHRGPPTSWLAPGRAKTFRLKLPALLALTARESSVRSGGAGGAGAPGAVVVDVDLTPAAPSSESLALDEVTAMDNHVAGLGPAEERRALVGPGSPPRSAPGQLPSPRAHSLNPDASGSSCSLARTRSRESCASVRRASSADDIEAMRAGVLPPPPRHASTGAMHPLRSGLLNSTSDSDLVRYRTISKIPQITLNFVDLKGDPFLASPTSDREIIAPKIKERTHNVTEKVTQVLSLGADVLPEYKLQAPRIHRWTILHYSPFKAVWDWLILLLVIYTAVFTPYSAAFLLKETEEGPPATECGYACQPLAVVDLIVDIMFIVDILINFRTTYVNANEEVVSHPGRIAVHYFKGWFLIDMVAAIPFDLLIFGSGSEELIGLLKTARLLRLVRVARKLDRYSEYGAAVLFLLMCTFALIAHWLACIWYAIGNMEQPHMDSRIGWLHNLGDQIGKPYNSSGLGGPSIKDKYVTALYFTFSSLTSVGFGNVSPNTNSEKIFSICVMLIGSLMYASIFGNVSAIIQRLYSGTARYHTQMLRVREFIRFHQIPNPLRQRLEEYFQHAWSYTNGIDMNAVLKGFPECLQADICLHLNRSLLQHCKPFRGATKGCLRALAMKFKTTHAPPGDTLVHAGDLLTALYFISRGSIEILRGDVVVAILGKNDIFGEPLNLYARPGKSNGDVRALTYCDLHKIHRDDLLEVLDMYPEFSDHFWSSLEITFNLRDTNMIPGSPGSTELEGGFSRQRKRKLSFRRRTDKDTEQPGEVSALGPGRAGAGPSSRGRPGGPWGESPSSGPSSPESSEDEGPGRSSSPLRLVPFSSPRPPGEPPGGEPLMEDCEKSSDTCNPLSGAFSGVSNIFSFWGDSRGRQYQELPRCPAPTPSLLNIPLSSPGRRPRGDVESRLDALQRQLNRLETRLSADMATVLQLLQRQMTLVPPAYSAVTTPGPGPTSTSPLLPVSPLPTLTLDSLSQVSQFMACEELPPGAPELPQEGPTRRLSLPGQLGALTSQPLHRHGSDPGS
Take `COc1cc(C(=O)OCC(=O)Nc2cccc(S(=O)(=O)N3CCOCC3)c2)ccc1OCC(C)C`: the “hERG current change (%, negative = inhibition) at 1uM” value was 8.06%. In the case of `COC(=O)COc1ccc(-c2nccc(-c3ccc(Br)cc3)n2)cc1` it was 3.66%; in that of `CCOC(=O)N1CCN(S(=O)(=O)Cc2ccccc2)CC1`, 13.8%. With `CC(C)c1ccc(OCC(=O)N2CCc3ccccc3C2)cc1`, the “hERG current change (%, negative = inhibition) at 1uM” value was 13.4%. Then `COc1ccc(/C=C2\SC(=S)N(CCC(=O)N3CCCCC3CCO)C2=O)cc1` (stereo not shown), with 13.2%; and `Cc1ccc(S(=O)(=O)N2CCC(C(=O)N[C@@H](C)C(=O)Nc3ccc4c(c3)OCO4)CC2)cc1`, with -6.05%; and `C/C(=N\NC(=S)NC1CCCCC1)c1c(F)cccc1F`, with 13.3%. Then `Oc1c(C=C2N=c3ccccc3=N2)sc(=S)n1C1CCCCC1` [17433500], with 7.92%; and `O=S(=O)(NCCc1ccc2c(c1)OCCO2)c1cccs1`, with 3.03%; and `COc1cccc(CN2C(=O)[C@@H]3Cc4c([nH]c5ccccc45)C(C)(C)N3C2=O)c1`, with 9.97%. Take `COc1cccc(C2CC(c3cccc(NS(C)(=O)=O)c3)=NN2C(=O)c2ccccc2)c1OC` (stereo not shown): the “hERG current change (%, negative = inhibition) at 1uM” value was -5.58%. With `NS(=O)(=O)c1cc(C(=O)Nc2ccc3c(c2)OCCCO3)ccc1Cl`, the “hERG current change (%, negative = inhibition) at 1uM” value was 14.7%. In the case of `CCOC(=O)CNC(c1ccccc1)c1cc(Br)ccc1NC(=O)OCC` (stereo not shown) it was 11.3%; in that of `COc1ccc(OC)c(NC(=O)CCC(=O)N(Cc2ccc(OC)c(OC)c2)c2nccs2)c1`, 11.6%; in that of `COc1cc(/C=C(/NC(=O)c2ccccc2)C(=O)N2CCN(C)CC2)c([N+](=O)[O-])cc1OC`, 2.75%.

On to `CCN(C(=O)COC(=O)c1ccc2ccccc2c1)c1c(N)n(Cc2ccccc2)c(=O)[nH]c1=O`, for which the “hERG current change (%, negative = inhibition) at 1uM” value was 9.57%. Turning to `CC(C)CN(C(=O)COc1ccc(C(C)(C)C)cc1)C1CCS(=O)(=O)C1` (stereo not shown), the “hERG current change (%, negative = inhibition) at 1uM” value was 5.69%. In the case of `C=C1CCN([C@H](C(=O)NCc2ccccc2)C(C)C)S(=O)(=O)c2ccccc21` it was 7.82%; in that of `O=C1C2CC=CCC2C(=O)N1c1ccc(Cc2ccncc2)cc1` (stereo not shown), -20.5%. Then `CC1(C)Cc2c(C#N)c(SCCO)nc(N3CCOCC3)c2CO1`, with 11.9%; and `CCOc1ccc2c(c1)nc(C)n2C`, with 13.1%; and `C[n+]1cn(Cc2cc(Cl)ccc2OC(F)F)c2ccccc21.[Br-]`, with 2.86%. For the compound `COc1ccc(/C(C)=N/OC/C(O)=C(\C#N)c2nc3ccccc3[nH]2)cc1OC`, the “hERG current change (%, negative = inhibition) at 1uM” value is 2.18%. For the compound `COc1ccccc1NC(=O)NCC(=O)Nc1c(C)cccc1C`, the “hERG current change (%, negative = inhibition) at 1uM” value is on record as 21.3%. In the case of `Cc1c(C(=O)NCCSCc2ccco2)cccc1[N+](=O)[O-]` it was 9.46%. In the case of `CCOc1ccc(-n2c(O)c(N=Nc3ccc([N+](=O)[O-])cc3)c(=O)[nH]c2=O)cc1` it was 16%; in that of `COc1cc(S(=O)(=O)N2CCCCC2)ccc1NC(C)=O`, -6.87%; in that of `COc1ccc(C2(CNC(=O)c3ccco3)CCOCC2)cc1`, 4.35%.

In the case of `Cc1c(CN(C)CCc2ccccc2)c(=O)n(-c2ccccc2)n1C`, the “hERG current change (%, negative = inhibition) at 1uM” value amounted to 9.12%.

As to `CCC(=O)N(c1nnc(SCC(=O)NN2C(=O)NC3(CCCCC3)C2=O)s1)C1CC1`, the “hERG current change (%, negative = inhibition) at 1uM” value came out at 5.45%. Then `COc1cc2c(cc1OC)C(c1ccc(Br)cc1)NC(=O)C2` (stereo not shown), with 14.7%; and `COC(=O)/C=C1/N/C(=N\c2nc(C)cc(C)n2)N(c2ccc(Cl)cc2)C1=O`, with 12.5%; and `CCCCNC(=O)CSc1nnc(NC(C)=O)s1`, with 2.62%.

Take `CN1CCC(=C2c3ccccc3C(O)c3ccccc32)CC1` (stereo not shown): the “hERG current change (%, negative = inhibition) at 1uM” value is listed as 9.82%. As for `CCOc1ccc(CN(C)CC(=O)Nc2ccc(N3CCOCC3)cc2)cc1OC`, the “hERG current change (%, negative = inhibition) at 1uM” value is -2.31%.

As for `CCN(CC)Cc1c(C(=O)N/N=C/c2ccccn2)nnn1-c1nonc1N`, the “hERG current change (%, negative = inhibition) at 1uM” value was -5.44%.

For `CCNC(=O)NC(=O)C(C)OC(=O)c1cc(S(=O)(=O)N2CCCCCC2)ccc1OC` (stereo not shown), the “hERG current change (%, negative = inhibition) at 1uM” value is listed as 3.17%. Then `NC(C(=O)O)C(c1ccccc1)C(F)F` (stereo not shown), with 16.9%; and `CSc1ccc(NC(=O)NCc2ccccc2)cc1`, with 17.9%. Then `CCC1CCCCN1C(=O)NC(=O)c1ccccc1` (stereo not shown), with 24.9%; and `COc1ccccc1NC(=O)/C(=C\c1cccs1)NC(=O)c1ccco1`, with 7.99%; and `Cc1c(NC(=O)CCCCCN2C(=O)c3ccccc3C2=O)c(=O)n(-c2ccccc2)n1C`, with 9.37%.

With `COC(=O)c1ccc(CN2CCN(C3CCCC3)C(CCO)C2)cc1` (stereo not shown), the “hERG current change (%, negative = inhibition) at 1uM” value is listed as -12.9%. Consider `CC1(C)CC(=NOC(=O)c2ccccc2)CC(C)(C)N1O`, for which the “hERG current change (%, negative = inhibition) at 1uM” value is 14.1%.

Turning to `CCOC(=O)c1ccc(NC(=O)COc2ccc(S(=O)(=O)NC(C)CC)cc2)cc1` (stereo not shown), the “hERG current change (%, negative = inhibition) at 1uM” value is -6.09%. For the compound `O=S(=O)(c1ccc(N2CCN(Cc3ccc4c(c3)OCO4)CC2)nc1)N1CCOCC1`, the “hERG current change (%, negative = inhibition) at 1uM” value was found to be 3.35%. In the case of `Cc1cnc(C(=O)OCC(=O)NC2CCCC(C)C2C)cn1` (stereo not shown) it was 8.03%; in that of `CCOc1ccc(C2/C(=C(\O)c3ccc4c(c3)OCCO4)C(=O)C(=O)N2CCCN2CCOCC2)cc1OC` (stereo not shown), 2.75%; in that of `CCCn1c(=O)[nH]c(=O)c2c(C(=O)OCC)cc(-c3cccs3)nc21`, 9.08%. Take `Cn1c(=O)c2c(ncn2CC(=O)Nc2ccc(N3CCOCC3)cc2)n(C)c1=O`: the “hERG current change (%, negative = inhibition) at 1uM” value is 11.9%. Then `Cc1ccc(N/C=C2\CCCCC2=O)c(C)c1`, with 8.3%; and `CC(=O)Nc1cccc(NC(=O)c2ccc(Br)cc2)c1`, with 20.4%.

For the compound `CN1C2=CC=CC=CC2=[N+](C)C12C=CC(=[N+]([O-])[O-])C=C2[N+](=O)[O-]` (stereo not shown), the “hERG current change (%, negative = inhibition) at 1uM” value was 11.6%. For `Cc1nc(N/N=C/c2ccc(O)cc2O)cc(N2CCOCC2)n1`, the “hERG current change (%, negative = inhibition) at 1uM” value stood at 10.9%. As to `CCn1c(CCc2ccccc2)nc2ccccc21.Cl`, the “hERG current change (%, negative = inhibition) at 1uM” value was 10.9%. Regarding `Cc1cccc(NC(=O)C2CCN(S(=O)(=O)c3c(C)[nH]c(=O)[nH]c3=O)CC2)c1`, the “hERG current change (%, negative = inhibition) at 1uM” value is 3.29%. In the case of `CCCNC(=S)N1CCC(NC(=O)Nc2ccc(C)cc2)CC1` it was 13.4%; in that of `CC(C)CC(OC(=O)c1ccc(Cl)nc1)C(=O)NC1CCCC1` (stereo not shown), 13.8%; in that of `CN(C(=O)c1ccc2c(c1)OCO2)C1CCCCC1`, 6.85%. Then `CCN(CC(=O)Nc1ccc(NC(C)=O)cc1)C(=O)c1cccc(-n2cccc2)c1`, with 19.5%; and `CCOC(=O)c1c(-c2ccc(F)cc2)csc1NC(=O)CN1C(=O)NC2(CCCCC2C)C1=O` (stereo not shown), with 4.89%. In the case of `CSCCC(NC(=O)COc1ccccc1)C(=O)N1CCCC(C)C1` (stereo not shown) it was 4.93%; in that of `CCOc1ccc(CNC(=O)CCC(=O)N2Cc3ccccc3Oc3ncccc32)cc1`, -6.15%; in that of `O=c1cc(O)c2ccccc2n1Cc1ccccc1F`, 8.51%. Regarding `O=c1nccc(N/N=C/c2ccccc2O)[nH]1`, the “hERG current change (%, negative = inhibition) at 1uM” value came out at 12.2%. Then `O=C(C[n+]1cccc2ccccc21)c1ccc(Br)cc1.[Br-]`, with -5.64%; and `COc1ccc2oc(=O)c(C(=O)Nc3cccc(C(C)=O)c3)cc2c1`, with 16.8%; and `COC(=O)c1ccc(NC(=O)CS(=O)(=O)c2ccccc2)cc1`, with 11%. Then `Cc1c(Cl)cccc1N1C(=O)CC(NNC(=O)c2cccs2)C1=O` (stereo not shown), with 12.1%; and `Cc1c(Cl)cccc1NC(=O)COC(=O)Cn1cnc2c1c(=O)n(C)c(=O)n2C`, with 12.6%; and `CCCc1nc2cc3c(cc2[nH]1)n(C)c(=O)n3C.Cl`, with 6.45%.

As for `Cc1nnc(SCC(=O)NCc2ccccc2)s1`, the “hERG current change (%, negative = inhibition) at 1uM” value worked out at 9.69%. Then `CN(CC(=O)O/N=C(\N)c1ccc([N+](=O)[O-])cc1)S(=O)(=O)c1ccccc1`, with 1.05%. As to `O=c1[nH]c(C2CCCN(S(=O)(=O)c3ccc(F)cc3)C2)nc2c1nnn2Cc1ccc(F)cc1` (stereo not shown), the “hERG current change (%, negative = inhibition) at 1uM” value turned out to be 6.87%.

Regarding `OCCC1CN(CCCc2ccccc2)CCN1Cc1ccccc1` (stereo not shown), the “hERG current change (%, negative = inhibition) at 1uM” value is given as -35.6%. Then `CC(=O)N1CCc2c(sc(NC(=O)Cc3ccc(C)cc3C)c2C#N)C1`, with 3.21%. In the case of `O=C(COc1ccc2ccc(=O)oc2c1)NCC(O)c1ccccc1` (stereo not shown), the “hERG current change (%, negative = inhibition) at 1uM” value amounted to 12.9%. In the case of `CCOC(=O)c1sc2nc(C)nc(NCc3cccnc3)c2c1C` it was 10.8%.

For the compound `O=C1CC(NCc2ccc3c(c2)OCO3)C(=O)N1Cc1ccc2c(c1)OCO2` (stereo not shown), the “hERG current change (%, negative = inhibition) at 1uM” value is reported as 5.43%. On to `O=P(OCC(F)(F)C(F)F)(N1CCCCC1)N1CCCCC1`, for which the “hERG current change (%, negative = inhibition) at 1uM” value is recorded as 7.71%.

As to `COc1ccc(/C=C(\NC(=O)c2ccc(C)cc2)C(=O)NCCCN2CCOCC2)cc1OC`, the “hERG current change (%, negative = inhibition) at 1uM” value was determined as 14.1%. Regarding `COCCN(Cc1ccccc1)C(=O)Cc1ccc(S(=O)(=O)N2CCOCC2)s1`, the “hERG current change (%, negative = inhibition) at 1uM” value is -2.95%. In the case of `CCOc1ccc(NC(=O)CSC2=C(C#N)C(c3ccc4c(c3)OCO4)CC(=O)N2)cc1` (stereo not shown) it was -0.396%.

For the compound `COc1ccccc1CNc1cc(C)ccn1`, the “hERG current change (%, negative = inhibition) at 1uM” value is 13.5%. Then `c1ccc(-n2nc3ccccc3n2)cc1`, with 10.8%. As to `C/C(=N\N1CCN(C)CC1)c1c(O)[nH]c(=O)[nH]c1=O`, the “hERG current change (%, negative = inhibition) at 1uM” value stood at 8.28%. Then `CCOC(=O)COc1ccc(/C=C/[N+](=O)[O-])c(OCC(=O)OCC)c1`, with 12.7%. `COc1cccc(CNc2ccc(S(=O)(=O)Nc3nccs3)cc2)c1O`: the “hERG current change (%, negative = inhibition) at 1uM” value is 5.41%.
